# Measured values from article PMC4336329 (PLoS ONE, 2015).
# The whole screen tested about 310,000 compounds, of which about 2,200 (0.71%) showed an effect of 50% or more. Effects have a minus sign here. Some of the results follow.
# Target: human ether-à-go-go-related gene (hERG) potassium channel (human, UniProt Q12809)
# Experiment: primary screen, population patch clamp on CHO cells stably expressing hERG
# human ether-à-go-go-related gene (hERG) potassium channel, sequence (Q12809 whole entry, looked up): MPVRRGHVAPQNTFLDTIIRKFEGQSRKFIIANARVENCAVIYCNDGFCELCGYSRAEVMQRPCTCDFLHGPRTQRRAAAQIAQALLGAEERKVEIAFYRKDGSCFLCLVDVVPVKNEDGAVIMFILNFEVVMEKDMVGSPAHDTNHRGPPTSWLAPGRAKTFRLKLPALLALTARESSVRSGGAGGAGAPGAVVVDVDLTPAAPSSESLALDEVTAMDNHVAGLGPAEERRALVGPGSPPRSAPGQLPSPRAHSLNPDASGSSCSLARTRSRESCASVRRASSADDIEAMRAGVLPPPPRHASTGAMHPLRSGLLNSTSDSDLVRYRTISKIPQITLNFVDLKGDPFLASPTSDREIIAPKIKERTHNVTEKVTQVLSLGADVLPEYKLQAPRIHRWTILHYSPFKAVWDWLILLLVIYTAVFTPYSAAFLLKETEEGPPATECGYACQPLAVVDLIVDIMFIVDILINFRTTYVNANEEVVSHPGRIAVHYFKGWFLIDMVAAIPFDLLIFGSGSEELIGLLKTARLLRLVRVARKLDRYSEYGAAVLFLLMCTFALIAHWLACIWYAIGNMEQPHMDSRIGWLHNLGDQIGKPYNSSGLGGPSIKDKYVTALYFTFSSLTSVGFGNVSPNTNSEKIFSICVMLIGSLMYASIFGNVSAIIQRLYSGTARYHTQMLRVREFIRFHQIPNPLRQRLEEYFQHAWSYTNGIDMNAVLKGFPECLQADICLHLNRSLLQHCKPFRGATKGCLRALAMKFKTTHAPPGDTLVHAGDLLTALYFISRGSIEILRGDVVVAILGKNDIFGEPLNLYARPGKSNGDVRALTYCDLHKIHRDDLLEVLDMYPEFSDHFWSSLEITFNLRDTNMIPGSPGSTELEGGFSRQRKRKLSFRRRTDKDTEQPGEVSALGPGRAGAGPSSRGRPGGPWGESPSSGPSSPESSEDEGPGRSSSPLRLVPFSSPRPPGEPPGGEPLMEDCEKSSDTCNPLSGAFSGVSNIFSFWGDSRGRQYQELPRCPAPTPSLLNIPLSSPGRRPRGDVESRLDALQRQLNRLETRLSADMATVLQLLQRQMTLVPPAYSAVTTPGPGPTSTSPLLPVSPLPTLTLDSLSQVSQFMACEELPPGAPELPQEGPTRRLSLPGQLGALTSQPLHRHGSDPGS
row,Structure (SMILES),"hERG current change (%, negative = inhibition) at 1uM [%]"
1,Cc1[nH]c(=O)[nH]c(=O)c1S(=O)(=O)N1CCCC(C(=O)NCc2ccccc2Cl)C1 (stereo not drawn),-1.28
2,O=C(NCCc1nnc2ccc(NCCCN3CCOCC3)nn12)c1ccccc1F,13.1
3,Cc1cc(NCCN2CCOCC2)c2ccc3ccccc3c2n1,-58.3
4,O=C(COC(=O)CSc1ccc([N+](=O)[O-])cc1)NCCc1ccccc1,3.2
5,CC1(C)CC(=O)C2=C(C1)N(c1ccccc1C#N)C(N)=C(C#N)C2c1cccs1 (stereo not drawn),3.1
6,CCO/N=C(/C)c1c(O)cc(C(C)(C)C)n(-c2ccccc2)c1=O,1.63
7,COc1ccc2[nH]c3nc(SCC(=O)Nc4ccc5c(c4)OCO5)nnc3c2c1,7.59
8,CCCCN(CCCC)C(=O)c1nsnc1-c1ccccc1O,3.8
9,COc1ccc(NC(=O)Nc2ccc3c(c2)OCO3)c(C)c1,12.3
10,O=C(CCCn1c(SCC(=O)NCC2CCCO2)nc2ccccc2c1=O)NCc1ccccc1 (stereo not drawn),0.686
11,N#Cc1ccc(CN2CCN(C(=O)c3cn(Cc4ccccc4)nc3-c3cccnc3)CC2)cc1,-30
12,CSc1nsc(SCc2cnc(C)nc2N)n1,9.96
13,COc1ccc(OC)c(S(N)(=O)=O)c1,17.8
14,CCc1nc(C#N)c(N2CCOCC2)o1,6.34
15,Cc1cc(C)c2c(=O)n(CC(=O)N3CCC(N4CCCCC4)CC3)sc2n1,-1.96
16,COc1ccc(CNC(=O)c2cc(C3CC3)nc3c2cnn3C(C)C)cc1,13.2
17,O=C(NC1CCOC1)c1cc(COc2cccc(C(F)(F)F)c2)on1 (stereo not drawn),15.1
18,Cc1c(NC(=O)c2cnn3c(C(F)(F)F)cc(-c4ccco4)nc23)c(=O)n(-c2ccccc2)n1C,7.06
19,O=C(N/N=C/c1ccc([N+](=O)[O-])cc1)c1cccc(N2CCCC2=O)c1,5.84
20,O=c1oc(-c2ccccc2NS(=O)(=O)c2ccc(Cl)cc2)nc2ccccc12,14.3
21,CCc1c(C)sc(NC(=O)/C=C/c2ccc3c(c2)OCO3)c1C(=O)OC,10.9
22,Cc1c(C(=O)N2CCN(c3ncccn3)CC2)oc2c(Cl)cccc12,-5.4
23,Cc1cc(S(=O)(=O)NCCN2CCOCC2)ccc1Cl,14.5
24,CC(=O)c1ccc(OC(=O)c2ccc(-n3nc(C)cc3C)cc2)cc1,5.1
